Several values for one entry are separate records, joined by “and”; a condition that tells them apart may be missing. Equal values may be shown once. Among all 48,000 compounds or so, about 1,200 (2.5%) were called active. Inconclusive results (about 2%) are left out.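 Rule for the calls: active = activation of at least 60% and not above a set upper limit (about 1 call in 100 departs from these limits); inconclusive = activation of 40% to 60%, or above that upper limit; inactive = activation under 40%.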 This is one part of the list.
What follows are compounds tested against Probable G-protein coupled receptor 32 (Homo sapiens) (UniProt O75388) (assay: qHTS for Agonists of Human Resolvin D1 Receptor DRV1). Conditions: CHO-K1 GPR32 beta-arrestin PathHunter luminescence, 90 min; at 76.9 µM; stronger effect = higher value; zero percent set by DMSO-only wells.
Chain of UniProt O75388 (O75388 whole entry, looked up): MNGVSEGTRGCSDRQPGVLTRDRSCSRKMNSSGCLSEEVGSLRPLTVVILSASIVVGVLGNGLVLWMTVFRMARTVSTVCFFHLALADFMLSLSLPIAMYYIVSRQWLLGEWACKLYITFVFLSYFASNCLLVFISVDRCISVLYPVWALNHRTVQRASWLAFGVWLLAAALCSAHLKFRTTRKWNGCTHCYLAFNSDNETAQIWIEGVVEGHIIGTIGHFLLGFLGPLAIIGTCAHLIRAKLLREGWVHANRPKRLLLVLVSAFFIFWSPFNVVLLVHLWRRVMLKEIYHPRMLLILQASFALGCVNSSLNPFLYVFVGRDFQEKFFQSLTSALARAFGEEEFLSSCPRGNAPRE
Summary of the method: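 Readings come from a cell-based beta-arrestin complementation format: CHO-K1 GPR32 stable cells (2,500/well) treated 90 min with compounds, then beta-Gal substrate added for 1 h before chemiluminescence imaging.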
Note: 0% is about no effect.

Row | Structure (SMILES) | activation
1 | COc1ccccc1N1CCN(S(=O)(=O)CCNC(=O)C(c2ccccc2)c2ccccc2)CC1 | inactive: -29.9%
2 | O=C1NC2CCCCN2C12CCN(CCCN1c3ccccc3CCc3ccc(Cl)cc31)CC2 (configuration not stated) | inactive: -11%
3 | COc1ccc(S(=O)(=O)N(CCc2ccccc2)CC(=O)Nc2cc(C)cc(C)c2)cc1OC | inactive: -10.3%
4 | CC1=C(c2ccc(C(C)C)cc2)S(=O)(=O)NC1=NCc1ccc(Cl)cc1 | inactive: -5.31%
5 | COCCCNC(=O)C1CCN(c2nc3ccc(Cl)cc3[nH]2)CC1 | inactive: -2.24%
6 | CCCCCCCCOc1ccccc1C(=O)Nc1ccc(C(=O)OCC[N+](C)(CC)CC)cc1 | inactive: -55.9%
7 | Cc1sc2ncn(CC(=O)N3CCN(c4ccccc4)CC3)c(=O)c2c1S(=O)(=O)N1CCC(C)CC1 | inactive: -14.4%
8 | CCc1ccc2occ(CC(=O)Nc3ccc(C)c(C)c3)c2c1 | inactive: 33.5%
9 | CCOC(=O)c1ccccc1NC(=O)c1nn(-c2ccc(OC)c(Cl)c2)c(=O)c2c1c1ccccc1n2C | inactive: 15.9%
10 | Cc1ccc(CNC(=O)CCCc2nnc3n(CC(C)C)c(=O)c4sccc4n23)cc1 | inactive: -1.76%
11 | O=C(CN1C(=O)CSc2ccc(S(=O)(=O)N3CCCC3)cc21)NCc1ccc(F)cc1Cl | inactive: -3.94%
12 | O=c1c2nncn2ccn1-c1ccc(F)c(F)c1 | inactive: 32.4%
13 | O=C(c1cc2cc3ccc(Cl)cc3nc2o1)N1CCN(c2cccc(Cl)c2)CC1 | inactive: -1.45%
14 | CCN(CC)C(=O)C1CCCN(c2ncnc3c2c(-c2ccccc2)cn3-c2cccc(C)c2)C1 (configuration not stated) | inactive: -37.6%
15 | Cc1cccc(NC(=O)N2CC=C(c3c[nH]c4ccccc34)CC2)c1C | inactive: -24.5%
16 | CCCSc1ncnc2c1c(-c1ccccc1)cn2-c1ccccc1OC | inactive: -0.665%
17 | COc1ccc(OC)c(NC(=O)CS(=O)(=O)Cc2nc(-c3ccc(C)cc3)oc2C)c1 | inactive: -10.2%
18 | CN1CCN2c3ccccc3Cc3ccccc3C2C1 (configuration not stated) | inactive: -12.6% and inactive: -17.5%
19 | CCOc1ccc2c(c1)c(=O)c(S(=O)(=O)c1ccc(CC)cc1)cn2Cc1cccc(Cl)c1 | inactive: -15.5%
20 | Cc1ccc(Cl)cc1Nc1nn2c(=O)c3ccc(C(=O)NC4CCCCC4)cc3nc2s1 | inactive: 6.5%
21 | CCc1cccc(C)c1NC(=O)Cn1ncc2c3ccccc3n(Cc3ccccc3)c2c1=O | inactive: -10.3%

Row | Structure (SMILES) | activation
22 | COc1ccc(-c2cn3nc(SCC(=O)Nc4cc(C)cc(C)c4)ccc3n2)cc1 | inactive: -8.9%
23 | CCOc1ccc(OCC)c(NC(=O)c2cc(-c3cccs3)nc3ccccc23)c1 | inactive: 9.73%
24 | CCCCOC(=O)c1ccc(Nc2nc3ccc(C(=O)c4ccccc4)cc3n3cnnc23)cc1 | inactive: -6.41%
25 | COc1ccc(CNC(=O)c2ccc(CS(=O)(=O)c3ccc(Br)cc3)o2)cc1 | inactive: -7.86%
26 | O=c1c2sccc2n(Cc2cc(=O)n3cc(Cl)ccc3n2)c(=O)n1-c1ccccc1 | inactive: -14.1%
27 | O=c1c(N2CCN(c3cccc(Cl)c3)CC2)csc2ccc(Cl)cc12 | inactive: -53.3%
28 | O=C1CCSc2ccc(S(=O)(=O)Nc3cccc(C(F)(F)F)c3)cc2N1 | active: 109%
29 | CCC(=O)N1CCCc2cc(S(=O)(=O)N3CCC(C(=O)Nc4ccc(C#N)cc4)CC3)ccc21 | inactive: -6.24%
30 | CCOC(=O)c1cc(S(=O)(=O)NCc2ccc(OC)cc2)[nH]n1 | inactive: -12.3%
31 | COc1ccc(OCc2ccc(-c3nc(C#N)c(NCc4cccnc4)o3)o2)cc1 | inactive: 29.3%
32 | CCCC(=O)Nc1ccccc1C(=O)OCc1cc(=O)n2nc(C(C)C)sc2n1 | inactive: 4.47%
33 | Cc1cccc2c(=O)cc(CSc3ccccc3NC(=O)C(C)(C)C)[nH]c12 | inactive: -9.42%
34 | CC(=O)c1cccc(NC(=O)Cn2cc(C(=O)c3cccc(Cl)c3)c(=O)c3ccc(C)nc32)c1 | inactive: -15.7%
35 | COc1ccc(OC)c(S(=O)(=O)N2CCN(Cc3nc4ccc(C)cc4o3)CC2)c1 | inactive: -8.19%
36 | CCN(C(=O)Cn1c(=O)n(Cc2ccc3c(c2)OCO3)c(=O)c2ccc(C(=O)NC3CCCCC3)cc21)c1cccc(C)c1 | inactive: 36.3%
37 | COC(=O)c1ccc(-n2c(/C=C/c3cc(OC)c(OC)c(OC)c3)nc3cc(Cl)ccc3c2=O)cc1 | inactive: -16.4%
38 | Cc1cc(C)cc(NC(=O)N2CCN(C(=O)c3nsc4ccccc34)CC2)c1 | inactive: -8.64%
39 | COc1cc(NC(=O)Cn2nnnc2-c2ccccc2F)cc(OC)c1OC | inactive: 6.69%
40 | CC(=O)Nc1ccc(NC(=O)C(NS(=O)(=O)c2ccc(Br)s2)c2ccccc2)cc1 (configuration not stated) | inactive: -8.34%
41 | Cc1ccc(CNC(=O)CCc2nc3cccnc3n2Cc2ccccc2)cc1 | inactive: -3.92%
42 | Cc1ccc(Cn2cc(S(=O)(=O)c3ccc(Cl)cc3)c(=O)c3cc4c(cc32)OCO4)cc1 | inactive: 5.6%

Row | Structure (SMILES) | activation
43 | COc1ccc(-c2cc3ccc(O)c(CN4CCCCC4C)c3oc2=O)cc1OC (configuration not stated) | inactive: -5.8%
44 | Cc1ccc(OCCSc2nc3ccc(NC(=O)c4ccco4)cc3s2)cc1 | inactive: 29.6%
45 | O=C1CC(=O)Nc2cc(S(=O)(=O)Nc3ccc(F)cc3Cl)ccc2N1 | inactive: -4.36%
46 | CCOc1ccc2nc(N(Cc3cccnc3)C(C)=O)sc2c1 | inactive: -7.07%
47 | CCCc1ccc(OC(C)c2nc(-c3ccc(-n4cccc4)cc3)no2)cc1 (configuration not stated) | inactive: 18.6%
48 | COCc1oc2ccc(NS(=O)(=O)c3ccc(C)cc3)cc2c1C(=O)OC | inactive: -13.4%
49 | O=C(CCNS(=O)(=O)c1ccc2c(c1)CCN2C(=O)C1CC1)N1CCN(c2cccc(C(F)(F)F)c2)CC1 | active: 73.7%
50 | CC(=O)N1CCc2cc(S(=O)(=O)NC(Cc3ccccc3)C(=O)NCc3ccccc3Cl)ccc21 (configuration not stated) | inactive: -4.87%
51 | Cc1ccc(C)c(NS(=O)(=O)c2ccc3oc(=O)c4ncn(C)c4c3c2)c1 | inactive: -1.16%
52 | Cc1ccc(N(C)C(=O)C2CCN(S(=O)(=O)c3cn(C)cn3)CC2)cc1 | inactive: -7.35%
53 | CCn1c(=O)c2cc(C(=O)NCCc3ccc(Cl)cc3)sc2c2ccccc21 | inactive: -5.02%
54 | CCc1nnc(SC(CC)C(=O)Nc2cc(C)ccc2C)c2cc3occc3n12 (configuration not stated) | inactive: -11.9%
55 | COc1ccc(OCC(=O)NC(Cc2c[nH]c3ccccc23)C(=O)O)cc1 (configuration not stated) | inactive: 1.72%
56 | COc1cc(C2c3c(oc4ccccc4c3=O)C(=O)N2Cc2ccc(C)cc2)ccc1O (configuration not stated) | inactive: -7.08%
57 | CC1CCN(CCCNC(=O)CN2C(=O)CSc3ccc(S(=O)(=O)N4CCOCC4)cc32)CC1 | inactive: -11.4%
58 | COc1ccc(NC(=O)c2cc3c(=O)n(Cc4cccnc4)ccc3nc2C)c(OC)c1 | inactive: 5.45%
59 | CN(C)CCc1c[nH]c2ccc(CS(=O)(=O)N3CCCC3)cc12 | inactive: -10.9%
60 | Cc1ccc(NC(=O)c2c(C)oc3ncn(CC(C)C)c(=O)c23)nc1 | inactive: -12.3%
61 | Cc1ccc2nc3c(cc(C(=O)NCc4ccco4)c(=N)n3C(C)C)c(=O)n2c1 | inactive: 1.54%
62 | Cc1cccc(CN2C(=O)c3ccccc3S(=O)(=O)c3ccc(C(=O)NC4CCCCC4)cc32)c1 | inactive: -1.56%
63 | O=C(Nc1ccc(N2CCOCC2)c(C(=O)O)c1)c1ccc(Br)cc1 | inactive: -8.06%

Row | Structure (SMILES) | activation
64 | Cc1ccc(CNC(=O)Cn2ccn(-c3ccc(F)cc3)c(=O)c2=O)cc1 | inactive: 1.26%
65 | CC(NC(=O)CSc1nc(-c2ccccc2F)nc2cc(=O)[nH]n12)c1nc2ccccc2n1C (configuration not stated) | inactive: -62.7%
66 | Cc1ccc(NC(=O)c2c(C)nn(-c3ccccc3)c2-n2cccc2)c(Cl)c1 | inactive: 0.748%
67 | CCc1cccc(CC)c1NC(=O)Cn1nnc2sc3c(c2c1=O)CCCC3 | inactive: -0.0697%
68 | Cc1ccc(Cc2nc3ccccc3nc2SCC(=O)NCc2ccccc2Cl)cc1 | inactive: -12.3%
69 | CCOC(=O)c1c(NC(=O)COc2ccc(C(C)(C)C)cc2)sc2c1CCCC2 | inactive: 20.3%
70 | O=C1CC(c2ccc(F)cc2F)c2cc3c(cc2N1)OCO3 (configuration not stated) | inactive: 23.7%
71 | COc1ccc(C(=O)N(c2ccc(C)cc2)S(=O)(=O)c2ccc(C)cc2)cc1 | inactive: -19.9%
72 | COc1ccc(Cl)cc1NC(=O)C1CCN(S(=O)(=O)c2ccc(F)cc2)CC1 | inactive: 24%
73 | COc1ccc(OC)c(NC(=O)Cn2c(=O)n(-c3ccc(Cl)cc3)c(=O)c3c(C)c(C)sc32)c1 | inactive: -1.82%
74 | Cc1ccc(N2C(=O)CS(=O)(=O)C23C(=O)N(Cc2ccc(Cl)cc2)c2ccccc23)cc1C (configuration not stated) | inactive: -3.94%
75 | COCCn1c(SCC(=O)c2ccc(F)cc2)nc2cc(C(=O)NC3CCCC3)ccc2c1=O | inactive: -31.9%
76 | Cc1ccc(N2C(=O)CCSC23C(=O)N(Cc2ccc(F)cc2)c2ccccc23)cc1 (configuration not stated) | inactive: -23.8%
77 | CCOc1cccc(C(=O)N(Cc2ccc(F)cc2)Cc2ccco2)c1 | inactive: -33.2%
78 | CC1CCN(C(=O)CSc2nnc(NC(=O)Nc3ccccc3)s2)CC1 | inactive: 14.3%
79 | CCOC(=O)C1CCN(C(=O)Cn2ncc3c4ccccc4n(Cc4ccccc4)c3c2=O)CC1 | inactive: -26.2%
80 | Cc1cccc(CC(=O)Nc2c(C(=O)Nc3cccc(F)c3)oc3ccccc23)c1 | inactive: -1.78%
81 | COC(=O)c1ccccc1NC(=O)Cn1c(CCC(=O)O)ccc1-c1ccc(C)cc1 | inactive: 1.62%
82 | Cc1ccc2c(c1)N(C(=O)CCC(=O)NCc1cccs1)CC(C)O2 (configuration not stated) | inactive: -18.9%

— PubChem BioAssay AID1346428 (National Center for Advancing Translational Sciences (NCATS), 2018)
